Results as given in the supplement of paper PMC10300432.

B1: C5046 (protein)
chain 1: QVQLVQSGAEVKKPGASVKLSCKTFGYIFTDHYLHWVRQAPGQGLEWMGWVSPNSGATNYTQKFQGRVTMTRDTSITTVYMELKRLSSDDTAVYYCARDHMRFMVRGVLSLWGQGTLVTVSS
chain 2: QSALTQPPSASGSPGQSVTISCTGTSIDVGDYNSVSWYQQHPGKAPQLMIYEISKRPSGVPDRFSGSKSGNTASLTVSGLQAEDEADYYCSSYVGRNNWVFGGGTKLTVL
B2: C5248 (protein)
chain 1: EVQLVESGGGLIQPGGSLRLSCAASGFTVSSNYMSWVRQAPGKGLEWVSVIYSGGSTYYADSVKGRFTISRDNSKNTLFLQMNNLTTDDTAVYYCAREAYALDVWGRGTTVTVSS
chain 2: DIQLTQSPSFLSASVGDRVTITCRASQGISNYLAWYQQKPGKAPKLLIYGASTLQSGVPSRFSGRGSGTEFTLTINSLQPEDFATYYCQLLNSHPGATFGPGTKVDIK
B3: C5249 (protein)
chain 1: EVQLVESGGGLIQPGGSLRLSCAASGITVNANYMNWVRQAPGKGLEWISVIYSGGSTFYADSVKGRFTISRDNSKNTLYLQMNSLRADDTAVYYCARDLGPRAFDIWGQGTLVTVSS
chain 2: DIQLTQSPSFLSASVGDRVTLTCRASQGISNDLAWYQQKPGKAPKLLIYAASTLQSGVPSRFSGSGSGTEFTLTISSLQPEDFATYYCQQLNSSPPRDTFGPGTKVDIK
B4: C5316 (protein)
chain 1: EVQLVESGGGLVQPGGSLRLSCAASGFTFSTYDMHWVRQVKGNALEWVSGTGTSGDTYYLDSVKGRFTISRDDAKNSLYLQMNNLRAGDTAIYYCVRGNAWYGGYYYGMDVWGQGTTVAVS
chain 2: DIQMTQSPSSLSASVGDRVTITCRASQTITKYINWYQQRPGRAPKLLIYAASTLHSGVPSRFSGSGSGTDFTLTISSLQPEDFATYYCQQSYSAPPWTFGQGTKVEIK
B5: C5317 (protein)
chain 1: QLQLQESGPGLVKPSETLSLTCNVSGGFVSSGSFYWGWVRQTPARGLEWLGTVYYTGSTNYNPSLRSRLTISVDTSNDQFSLRLRSVTAADAAVYYCVRRAVTTWFDPWGQGILVTVSS
chain 2: QSALTQPISVSGSPGQSISISCTGTRNDVGGYSYVSWYQQHPGKAPKLIIFDVNNRPSGASTRFSGSKSGNTASLTISGLQAEDEADYYCSSYTSSSTVIFGGGTRLTVL
B6: C5318 (protein)
chain 1: QVQLQESGPGLVKPSQTLSLTCTVSGASISSGTYYWSWIRQHPGKGLEWIGYIYYSGSTYYNPSLKSRVTISVDTSKNQFSLKLRSVTAADTAVYYCASQDTAMVFDFWGQGTLVTVSS
chain 2: QSVLTQPPSVSGAPGQRVTISCTGSSSNIGAGYDVHWYQQLPGTAPKLLIYGNSNRPSGVPDRFSGSKSGTSASLAITGLQAEDEADYYCQSLDISLSGSGYVFGTGTKVTVL
B7: C5319 (protein)
chain 1: QVQLVESGGGVVQPGRSLRLSCEASGLTFSTYGMHWVRQAPGKGLEWVAFISGDGSEKHYGDSVKGRFTISRDNSKDILYLQVNSLRAEDTAVYFCARDLYTGGPGYWGHGTLVTVSS
chain 2: QSVLTQEPSLTVSPGGTVTLTCGSSTGSVTSDHYPYWFQQKPGQPPRTLIYDTNTKHSWTPARFSGSLLGGKAALTLSGAQPEDEADYYCLLSYNGARNWVFGGGTKLTVL
B8: C5320 (protein)
chain 1: QVQLQESGPGLVKPSQTLSLICNVSGDSISSGAHYWSWIRQPAGKAMEWIGRIYTSGSPSGSPNYNPSLQGRVTMSVDTSTNRFSLKVTSVTAADSAVYYCASGTFFYYFDQWGQGILVTVSS
chain 2: NFMLTQPHSVSESPGKTVTISCTRSDGSIAGNYVQWYQQRPGSAPTTVIVEDNQRPSGVPDRFSGSIDMSSNSASLIISGLKIEDEADYYCQSWQLNMVVFGGGTKLTVL
B9: C5252 (protein)
chain 1: QVQLVQSGAEVKKPGSSVKVSCKASGGTFSSYSISWVRQAPGKGLEWMGKIIPILGVANYAQMFQGKVTITADKSTNTAYLELSSLRSDDTALYFCARETGYSGSGNLPAEYFHIWGQGTLVTVSS
chain 2: QSVLTQPPSVSGAPGQRVTISCTGTNSNIGAGYDVHWYQQLPGAAPKLLIYANNNRPSGVPDRFSGSRSGTSASLAITGLQADDEADYYCQSYDSSLTGSVFGGGTKLTVL
B10: C5253 (protein)
chain 1: QVQLVESGGGVVHPGRSLRLSCAASGFTFSTYGMHWVRQAPGKGPEWLTVISYDGDFKYYADSVKGRFTISRDNSKNTVYLQMNSLRTEDTAVYFCAKQLSPYCSGGSCYSYFDYWGQGTLVTVSS
chain 2: DIQMTQSPSSLSASIGDRVTITCQASQGISHFLNWFQQKPGKAPKLLIYDVSNLEAGVPSRFSGRGSGTDFTFTISSLQPEDIATYYCQQYDSLPLTFGGGTKVEIK
B11: C5254 (protein)
chain 1: QVQLVESGGGVVRPGGSLRLSCAASGFASDDYGMSWVRQVPGKGLEWVSGINWNGDSRGYADSVRGRFTISRDNAKNSLYLQMNSLRAEDTALYYCARMSGYDYTRPLDYWGQGTLVTVSS
chain 2: SYELTQPPSVSVAPGQTARMTCGGDNIGYKSVNWYQQKPGQAPVLVVYDDSGRPSGIPERFSGSNSGNTATLTITRVEAGDEADFYCQVWDTNSDHHVVFGGGTKLTVL
B12: C5047 (protein)
chain 1: QVQLVESGGGVVQPGRSLRLSCEASGFTFSRHAMHWVRQAPGNGLEWVAFISFDGSQQYYADSVKGRLILSRDNSKNTLYLQMNSLRPEDTAVYYCAINTLYHYDSSGPFDHWGQGTLVTVSS
chain 2: DIQMTQSPSTLSASVGDRVTITCRASQSISSWLAWYQQKPGKAPKLLIYDSSTLESGVPSRFSGSGSGAEFTLTISSLQPDDFTTYYCHQYNSYPWTFGQGTKVEIK
B13: C5255 (protein)
chain 1: QVQLVQSGAEVRKPGSSVNVSCKASGGTLTSYTLTWVRQAPGQGLEWLGRIIPMFDRANYAPKFQGRVTITADKSTNTAYMEVTSLRSDDTAVYYCAISPGIAIPLRGFDPWGQGTLVIVSS
chain 2: EIVMTQSPATLSVSPGARATLSCRASQSVSSDLAWYQQKPGQAPRLLIYGASTRATGLPTRFSGSGSGTEFTLTISSLHFEDFAVYYCQQYNNWPLTFGGGTKVEIK
B14: C5256 (protein)
chain 1: QVQLVQSGAEVKKPGSSVKVSCEASGGPFSTYTFSWVRQAPGQGLEWLGRILPVLNITNYAQKFQSRVTITADKSTSTAYMELRSLRSEDTAVYYCARNSGYDLLDYSGMDLWGQGTTVTVSS
chain 2: DIQMTQSPSTLSASVGDRVTITCRASQTIITWLAWYQQKPGKAPNLLIYKASSLESGVPSRFSGSGSGTEFTLTISSLQPDDFATYYCQQYYTYSWTFGQGTKVEIK
B15: C5257 (protein)
chain 1: EVQLVESGGGLVKPGGSLRLSCLISGFTLSRFNMNWVRQAPGKGLEWVASISETSSHIYYADSVKGRFTISRDNAKNSLYLEMSSLRTEDTGLYYCVRDAFWSGPMPAYWGQGTLVTVSS
chain 2: DVVMTQSPLSLPVTLGQPASISCSFSQSLVYSDGNTYLSWFQQRPGQSPRRLIYQVSNRDSGVPDKFSGSGSGTDFTLKISRVEAEDVGVYYCLQGTHWPPTFGQGTKVEI

target: SARS-CoV-2 Omicron BA.1 spike pseudovirus; experiment: pseudovirus neutralization IC50; higher = weaker neutralization
Description: (§1)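 Single-round luciferase reporter pseudovirus mixed with antibody dilutions and put on HT1080-ACE2 clone 14 cells for 48 h; signal relative to no-antibody wells, four-parameter fit.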

| Binder | pseudovirus neutralization IC50 |
| --- | --- |
| B1 | > 1 µg/mL |
| B2 | > 1 µg/mL |
| B3 | > 1 µg/mL |
| B4 | > 1 µg/mL |
| B5 | > 1 µg/mL |
| B6 | 0.21 µg/mL |
| B7 | > 1 µg/mL |
| B8 | 0.00457 µg/mL |
| B9 | 0.00636 µg/mL |
| B10 | > 1 µg/mL |
| B11 | 0.925 µg/mL |
| B12 | 0.254 µg/mL |
| B13 | > 1 µg/mL |
| B14 | 0.00438 µg/mL |
| B15 | > 1 µg/mL |

target: SARS-CoV-2 Omicron BA.4/5 spike pseudovirus; experiment: as above
Description: as §1

| Binder | pseudovirus neutralization IC50 |
| --- | --- |
| B1 | > 1 µg/mL |
| B2 | 0.957 µg/mL |
| B3 | > 1 µg/mL |
| B4 | > 1 µg/mL |
| B5 | 0.891 µg/mL |
| B6 | 0.2 µg/mL |
| B7 | > 1 µg/mL |
| B8 | 0.69 µg/mL |
| B9 | 0.405 µg/mL |
| B10 | > 1 µg/mL |
| B11 | > 1 µg/mL |
| B12 | 0.945 µg/mL |
| B13 | > 1 µg/mL |
| B14 | > 1 µg/mL |
| B15 | > 1 µg/mL |

target: SARS-CoV-2 Wuhan-Hu-1 spike pseudovirus; experiment: as above
Description: as §1

| Binder | pseudovirus neutralization IC50 |
| --- | --- |
| B1 | 0.000712 µg/mL |
| B2 | 0.00529 µg/mL |
| B3 | 0.00327 µg/mL |
| B4 | 0.301 µg/mL |
| B5 | > 1 µg/mL |
| B6 | 0.131 µg/mL |
| B7 | 0.694 µg/mL |
| B8 | 0.00406 µg/mL |
| B9 | 0.186 µg/mL |
| B10 | > 1 µg/mL |
| B11 | > 1 µg/mL |
| B12 | 0.555 µg/mL |
| B13 | 0.000902 µg/mL |
| B14 | 0.00474 µg/mL |
| B15 | 0.00122 µg/mL |

target: SARS-CoV-2 Wuhan-Hu-1 spike receptor-binding domain; experiment: ELISA binding EC50; higher = weaker binding; ELISA of recombinant human antibody on coated antigen, from 10 µg/ml in fourfold dilutions; four-parameter fit.

| Binder | ELISA binding EC50 |
| --- | --- |
| B1 | 0.00267 µg/mL |
| B2 | 0.00423 µg/mL |
| B3 | 0.00412 µg/mL |
| B4 | 0.00398 µg/mL |
| B5 | 0.0334 µg/mL |
| B6 | 0.0038 µg/mL |
| B7 | 0.00359 µg/mL |
| B8 | 0.00305 µg/mL |
| B9 | 0.00602 µg/mL |
| B10 | 0.00498 µg/mL |
| B11 | 0.00554 µg/mL |
| B12 | 0.00422 µg/mL |
| B13 | 0.00318 µg/mL |
| B14 | 0.00292 µg/mL |
| B15 | 0.00231 µg/mL |

Recombinant human monoclonal antibodies (heavy:light variable regions). ELISA EC50 on the named antigen, from 10 µg/ml down; IC50 against spike pseudovirus on HT1080-ACE2 cells, 48 h; lower = stronger. Calls: IC50 above 1,000 ng/ml = non-neutralizing; EC50 above 1,000 ng/ml = non-binder.
